# According to publication PMC9227077, “Prediction Models for Brain Distribution of Drugs Based on Biomimetic Chromatographic Data” (Molecules, 2022):
# What was measured:
# human serum albumin = system: human serum albumin; set-up: method as in ref 45 (a number printed in a supplementary file, which may have a reference list of its own: not looked up in the article's list); settings: pH=7.4, isocratic, 10% acetonitrile; available for 37 compounds, remaining calculated by equation; cited from earlier work
# α1 acid glycoprotein = system: α1 acid glycoprotein; set-up: method as in ref 23, 24, 27, 29, 45 (a number printed in a supplementary file, which may have a reference list of its own: not looked up in the article's list); settings: pH=7.4, 100% aqueous mobile phase; previously obtained in authors' laboratory; cited from earlier work
# [1] = Unbound fraction in brain (fu,brain), brain homogenate method; settings: Kb from literature fu,brain
# Text: However, Kp,uu,brain can be derived from Kp,brain by combining the unbound fraction of the drug in the plasma (fu,p) and in the brain (fu,brain) or the unbound brain volume of distribution, Vu,brain [7]. […] The relevant equations are included in Section 3. Evidently, fu,p is obtained by standard methods for plasma protein binding.
# Experimentally determined Kp,brain values for 42 compounds were obtained from the literature and were converted to logBB. They preferably referred to rat studies in order to achieve homogeneity in the data. Experimental fu,brain values were available from the literature for 39 compounds in the dataset. When more than one value was available, the average was calculated. Most values were determined on rats.
# The decimal logarithm of Kb, logKb, was used for the development of the models.
# [2] = rat brain tissue; cited from earlier work
# [3] = brain slice method; cited from earlier work
SMILES,"logk10,HSA (human serum albumin)",logkwAGP (α1 acid glycoprotein),logKb exper. [1],"Kp,uu,brain [2]","Vu,brain [3]"
CC(C)NCC(O)COc1ccc(CC(N)=O)cc1 (centres unmarked) [Atenolol],-1.04,0.10,0.950,0.03,
CN1C(=O)CN=C(c2ccccc2)c2cc(Cl)ccc21 [Diazepam],,1.80,,,20.00 mL/g brain
CN(C)CCOC(c1ccccc1)c1ccccc1 [Diphenhydramine],0.14,1.87,,,
CCN(CC)CC(=O)Nc1c(C)cccc1C [Lidocaine],0.07,1.25,,,
CN1CC[C@]23c4c5ccc(O)c4O[C@H]2[C@@H](O)C=C[C@H]3[C@H]1C5 [Morphine],,,0.499,0.32,
COc1ccc2cc([C@H](C)C(=O)O)ccc2c1 [Naproxen],1.55,0.20,,,
